# Experimental data taken from PubChem BioAssay AID504845 (National Center for Advancing Translational Sciences (NCATS), 2011).
# Hit rate of the full screen: of about 390,000 compounds, about 150 (0.038%) were called active. This list was built around the results that the source calls inconclusive (neither active nor inactive); the mix of calls is not that of the screen. The call rests on the fitted dose curve; in most records, active means well fitted inhibition curve with a large enough effect; inconclusive means small, poorly fitted or top-dose-only effect; inactive means no such curve, though single readings can be large or run the other way. Potencies of inconclusive entries are doubtful fits and often do not repeat.
# Biological target: Regulator of G-protein signaling 4 (Homo sapiens) (UniProt P49798)
# Assay: Inhibitors of Regulator of G Protein Signaling (RGS) 4: qHTS; further: nearly all actives have a fitted effect of over 75% in size
# Details: Transcreener GDP fluorescence polarization, RGS4-accelerated GTP hydrolysis; series mostly up to 114 µM
# Summary of the method: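 MLSMR compounds (23 nl, pin-transferred) preincubated 10 min at room temperature with a 500nM (2x) first reagent, then RGS4 at 900nM (2x) plus Transcreener GDP mix added; fluorescence polarization (620/688 nm) read before and after 90 min at 30 °C.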
# Potency means the concentration at half of the fitted maximal effect; tags describe the fitted curve by direction and shape.
# Chain of UniProt P49798 (P49798 whole entry, looked up): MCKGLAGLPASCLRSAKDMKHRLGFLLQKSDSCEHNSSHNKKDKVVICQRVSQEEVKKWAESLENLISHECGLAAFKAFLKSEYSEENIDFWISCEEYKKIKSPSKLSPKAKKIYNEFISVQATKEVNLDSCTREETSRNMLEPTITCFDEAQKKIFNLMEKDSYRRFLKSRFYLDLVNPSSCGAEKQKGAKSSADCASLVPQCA
row,SMILES,Potency
1,CCCOc1ccc(C(=O)Nc2cc(-c3nn4c(C)nnc4s3)ccc2C)cc1,"inconclusive: 50.1 µM [inhibitor, partial curve, poor fit]"
2,Cc1ccn2c(Nc3ccc4c(c3)OCO4)c(-c3ccc(C)o3)nc2c1,"inconclusive: 35.5 µM [inhibitor, partial curve, poor fit]"
3,Cc1ccc(-c2cc(C(=O)O)c3cc(Br)ccc3n2)o1,"inconclusive: 20 µM [inhibitor, full curve, poor fit]"
4,CC1(C)CC(=O)C2=C(C1)NC1=C(C(=O)c3ccccc31)C2c1cccnc1 (stereo unspecified),"inconclusive: 35.5 µM [inhibitor, partial curve, poor fit]"
5,CC(/C=N/n1c(-c2ccc(C)cc2)n[nH]c1=S)=C\c1ccco1,"inconclusive: 44.7 µM [inhibitor, partial curve, poor fit]"
6,Cc1nc(NC(=O)c2ccc(Cl)cc2)sc1Cc1ccc2c(c1)OCO2,"inconclusive: 44.7 µM [inhibitor, partial curve, poor fit]"
7,O=C(NCc1ccc(F)cc1)c1c2c(nc3ccccc13)CCC2,"inconclusive: 31.6 µM [inhibitor, partial curve, poor fit]"
8,c1ccc(-n2cc(CN3CCCC3)c(-c3ccc4c(c3)OCO4)n2)cc1,inactive
9,Cc1nnnn1/C(=C\c1ccccc1)C(=O)OCC(=O)NC1CCCCC1,"inconclusive: 79.4 µM [inhibitor, partial curve, poor fit]"
10,O=C(Oc1cccc(-n2cnnn2)c1)c1ccccc1,"inconclusive: 79.4 µM [inhibitor, single point]"
11,COC(=O)c1ccc(C(=O)OC)c(NC(=O)CSc2cccc[n+]2[O-])c1,"inconclusive: 56.2 µM [inhibitor, partial curve, poor fit]"
12,Clc1ncnc2[nH]ccc12,inactive
13,Cc1ccc(C)c(-c2ccc(=O)n(C(C)C(=O)Nc3ccccc3C(F)(F)F)n2)c1 (stereo unspecified),inactive
14,Cc1ccsc1C(=O)NCc1ccccc1Cl,"inconclusive: 50.1 µM [inhibitor, partial curve, poor fit]"
15,CN(C)/C=N/C(=S)Nc1ccc(Cl)c(Cl)c1,"inconclusive: 20 µM [inhibitor, full curve, poor fit]"
16,CCOc1ccc(NC(=O)CN2C(=O)NC(C)(c3ccc(OC(F)F)cc3)C2=O)cc1 (stereo unspecified),"inconclusive: 89.1 µM [inhibitor, single point]"
17,NC(=S)NN=C1CCC(C2CCCCC2)CC1 (stereo unspecified),"inconclusive: 100 µM [inhibitor, partial curve, poor fit]"
18,Cc1cccc(NC(=S)NNC(=O)c2csc3c2CCC(C)C3)c1 (stereo unspecified),inactive
19,CCCC(=O)Nc1cc(S(=O)(=O)N2CCOCC2)ccc1N1CCCCC1,"inconclusive: 17.8 µM [inhibitor, full curve, poor fit]"
20,CCOC(=O)C1(Cc2cccc(OC)c2)CCN(Cc2ccc(OC)c(OC)c2)CC1,inactive
21,O=C(NCc1ccc(Cl)cc1)NCC(F)(F)F,"inconclusive: 79.4 µM [inhibitor, partial curve, poor fit]"

row,SMILES,Potency
1,Cc1nc2sc(C(c3ccc(Br)cc3)N3CC(C)OC(C)C3)c(O)n2n1 (stereo unspecified),inactive
2,CCC(=O)Nc1ccc(NC(=O)CSc2nnnn2-c2ccc3c(c2)OCCO3)cc1,"inconclusive: 25.1 µM [inhibitor, full curve, poor fit]"
3,Cc1ccc(S(=O)(=O)N(CC(=O)Nc2ccc(C)c(Cl)c2)C(=O)N2CCN(C)CC2)cc1,"inconclusive: 50.1 µM [inhibitor, single point]"
4,O=C(CCN1C(=O)C2C3CC(C(Br)C3Br)C2C1=O)OCC(=O)c1ccccc1 (stereo unspecified),"inconclusive: 89.1 µM [inhibitor, single point]"
5,COc1ccccc1NC(=S)N(Cc1ccco1)Cc1cc2cc(C)ccc2[nH]c1=O,"inconclusive: 44.7 µM [inhibitor, partial curve, poor fit]"
6,Cc1ccc(N2CSC3=C(C#N)C(c4cccs4)CC(=O)N3C2)cc1 (stereo unspecified),"inconclusive: 17.8 µM [inhibitor, full curve, poor fit]"
7,Fc1ccc(-c2csc3ncnc(Cl)c23)cc1,"inconclusive: 44.7 µM [inhibitor, partial curve, poor fit]"
8,O=C(N/N=C1/CC(c2ccccc2)Oc2ccccc21)C1CC1 (stereo unspecified),"inconclusive: 56.2 µM [inhibitor, partial curve, poor fit]"
9,Cc1csc(=O)n1CCC(=O)OCC(=O)Nc1ccc(Cl)cn1,"inconclusive: 100 µM [inhibitor, partial curve, poor fit]"
10,c1ccc2sc(SN3CCOCC3)nc2c1,"inconclusive: 79.4 µM [inhibitor, partial curve, poor fit]"
11,CS(=O)(=O)c1ccc2c(c1)SC1=NC(=O)/C(=C/c3ccco3)C(=N)N12,"inconclusive: 79.4 µM [inhibitor, partial curve, poor fit]"
12,CCC(C)Sc1c(C(C)C)cnc2c1c(=O)n(C)c(=O)n2C (stereo unspecified),"inconclusive: 100 µM [inhibitor, single point]"
13,COC(=O)C1=CN(CC2CCCO2)C=C(C(=O)OC)C1c1ccccc1C(F)(F)F (stereo unspecified),inactive
14,O=S(=O)(Cc1ccccc1)N=Nc1c(O)[nH]c2ccc(Br)cc12,"inconclusive: 79.4 µM [inhibitor, partial curve, poor fit]"
15,Cc1cccc(C(=O)Nc2ccc3oc(-c4ccncc4)nc3c2)c1,"inconclusive: 39.8 µM [inhibitor, partial curve, poor fit]"
16,COc1ccc(NS(=O)(=O)c2ccc(NC(C)=O)cc2)c(OC)c1,"inconclusive: 25.1 µM [inhibitor, full curve, poor fit]"
17,COc1ccc(C(=O)COc2ccccc2C(N)=O)cc1,inactive
18,Cc1ccccc1OCCSc1nc(N(C)C)nc(N(C)C)n1,inactive
19,Clc1cccc(OCc2nc(-c3ccncc3)n[nH]2)c1,"inconclusive: 79.4 µM [inhibitor, partial curve, poor fit]"
20,COCc1cc(C)nc2sc3c(c12)NC(c1ccc(O)cc1)N(c1ccc(C)cc1)C3=O (stereo unspecified),"inconclusive: 79.4 µM [inhibitor, partial curve, poor fit]"
